Consider 87 molecules from PubChem BioAssay AID463173 (ICCB-Longwood Screening Facility, Harvard Medical School, 2010).

Molecules are shown by their SMILES. In all, about 52,000 compounds went through this assay and about 1,700 (3.3%) were called active. Cut-off read from the data, not from the text of the source: active = survival mostly below about 52% (no sharp cut-off); inactive = mostly above about 56%. The list shows a part of the results.

This test has as its system Wild type. Nature of the test: growth inhibition of S. aureus wild type versus tarO mutant, primary screen, teichoic acid synthesis inhibitors, RN4220, OD600 (AID 463173). To be noted: S. aureus RN4220 wild type/DeltatarO growth, OD600, 18 h, hits give low values, screened at 18.75 µg/mL (by protocol).
As for `CCOC(=O)N1CCN(Cc2nc3cc(NC(=O)c4ccc(F)cc4)ccc3n2C(C)C)CC1`, the survival was inactive: 86%.
As for `CCN(CC)Cc1ccc(C(=O)O)o1`, the figure is inactive: 100%; as for `CCOCCCNC(=O)C(NC(=O)C1CCC(C)CC1)C(C)C` (configuration not stated), inactive: 67%.
With `CN(C1CCCCC1)S(=O)(=O)c1ccc2c(c1)c(=O)c(C(=O)N1CCN(c3ccc(F)cc3)CC1)cn2C`, the survival was inactive: 87%.
Under `CCCCCCNC(=O)CCc1c(C)nc2nc(-c3cc(OC)cc(OC)c3)nn2c1C` stands inactive: 87%; under `Cc1ccc(C(=O)c2cn(Cc3cc(C)ccc3C)c3nc(C)ccc3c2=O)cc1`, inactive: 62%; under `Cc1cc(C)nc(SC2=CS(=O)(=O)c3ccccc32)n1`, inactive: 99%.
For the molecule `Cc1ccc(-c2nnn(CC(=O)N(c3ccccc3)C(C(=O)NCc3ccccc3)c3ccncc3)n2)o1` (configuration not stated), the survival is inactive: 109%.
Take `CCc1ccccc1NC(=O)c1nn(-c2ccc(C)cc2)c(=O)c2c1c1ccccc1n2C`: the survival was inactive: 130%.
As for `O=C(N/N=C1\SCC(=O)N1CCc1ccccc1)c1cccs1`, the figure is inactive: 100%.
As for `CC(C)c1cc(C(=O)NCc2ccc(F)cc2)no1`, the figure is inactive: 63%; as for `CCS(=O)(=O)n1nc(-c2ccco2)nc1NCc1ccc(C(C)C)cc1`, inactive: 86%.
Under `O=C(Nc1nccs1)c1ccc(S(=O)(=O)NCC2CCCCC2)cc1` stands inactive: 106%; under `CC(=O)Nc1ccc(NC(=O)C(NC(=O)C2CCC(C)CC2)C(C)C)cc1` (configuration not stated), inactive: 122%.
For `Cc1ccc(-n2cnc3cc(C(=O)NC4CCCCCC4)ccc32)c(C)c1`, the survival is inactive: 83%.
As for `COc1ccc(C)cc1NC(=O)C1CCC(CNS(=O)(=O)c2ccc3c(c2)CCCC(=O)N3)CC1` (configuration not stated), the figure is inactive: 60%; as for `O=C(Nc1ccc(F)cc1)c1ccc(CN2CC(=O)N3CCCCC3C2=O)cc1` (configuration not stated), active: -6%.
As for `COc1ccc(NC(=O)CC2SC(=Nc3ccccc3)N(CCO)C2=O)cc1` (configuration not stated), the figure is inactive: 106%; as for `CC(C)c1ccc(-c2noc(C3CCCN(S(C)(=O)=O)C3)n2)cc1` (configuration not stated), inactive: 102%; as for `Cc1ccc(NC(=O)CS(=O)CC(=O)NC2CCN(Cc3ccccc3)CC2)c(C)c1` (configuration not stated), inactive: 96%.
Under `CCc1ccc(Cn2nnc3c(=O)[nH]c(C4CCCN(C(=O)c5cccc(Cl)c5)C4)nc32)cc1` (configuration not stated) stands inactive: 76%; under `CC(C)c1ccc(OCC(=O)Nc2cc(-c3ccccc3)no2)cc1`, inactive: 127%; under `Cc1ccc(C(C)N2CCN(S(=O)(=O)c3ccc4c(c3)OCCO4)CC2)cc1C` (configuration not stated), inactive: 100%.
On to `CC(=O)c1c(C)n(S(=O)(=O)c2ccc(Cl)cc2)c2ccc(NS(=O)(=O)c3ccc(Cl)cc3)cc12`, for which the survival is inactive: 79%.
As for `Cc1cc(C)cc(NC(=O)Cn2nc(N3CCN(c4ccccc4)CC3)ccc2=O)c1`, the figure is inactive: 69%; as for `COc1cc(CN(C(=O)c2ccccc2Br)c2ccccn2)cc(OC)c1OC`, inactive: 91%; as for `COc1ccc(S(=O)(=O)NCCc2sc(-c3cccnc3)nc2C)cc1OC`, inactive: 75%.
Turning to `COc1ccc2c(c1)c(=O)c(S(=O)(=O)c1ccc(Cl)cc1)cn2Cc1cc(C)ccc1C`, the survival was inactive: 81%.
Under `Cc1ccc(NC(=O)CN2C(=O)C(c3ccc(C)cc3)=NC23CCCCCC3)cc1` stands inactive: 73%.
As for `Cc1ccc(C)c(N2CCN(C(=O)CCS(=O)(=O)c3ccc4c(c3)oc(=O)n4C)CC2)c1`, the figure is inactive: 115%; as for `CCc1ccc(NC(=O)c2cccc(N3CCCS3(=O)=O)c2)cc1`, inactive: 68%; as for `CCN(CC)C(=O)c1sc2c(c1C)c(=O)n(CCc1ccccc1)c(=O)n2Cc1ccc(C)cc1`, inactive: 71%.
Under `CCOc1cc2c(cc1OCC)C(CC(=O)OC)N(C(=O)Nc1cc(OC)ccc1OC)CC2` (configuration not stated) stands inactive: 75%; under `CCN1CCSc2ccc(C(=O)NCc3ccc(F)cc3)cc21`, inactive: 118%; under `CCCCNC(=O)c1cc(-c2cccnc2)nc2ccc(S(=O)(=O)NCCCC)cc12`, inactive: 65%.
Consider `COc1ccc(NCc2cccn2-c2nnc(N3CCOCC3)s2)cc1OC`, for which the survival is inactive: 72%.
With `Cc1ccc(CNC(=O)CCSCc2cnn(-c3ccccc3)c2-n2cccc2)cc1`, the survival is inactive: 77%.
Under `COc1ccc(CNC(=O)Cn2ncc3c(=O)oc4ccccc4c32)c(OC)c1` stands inactive: 89%; under `Cc1csc2nc(COC(=O)c3cccc(NC(=O)COc4ccccc4Cl)c3)cc(=O)n12`, inactive: 78%.
Under `CCc1cccc(NC(=O)Cc2nc(-c3ccc(OC)cc3)no2)c1` stands inactive: 99%; under `COCCCNC(=O)c1nn(C)c2c1CS(=O)(=O)c1ccccc1-2`, inactive: 106%; under `COc1ccc(-c2cn3c(n2)sc2cc(C(=O)NC(C)C45CC6CC(CC(C6)C4)C5)ccc23)cc1` (configuration not stated), inactive: 93%.
As for `COc1ccc(CNC(=O)CC2N=C3c4ccccc4N=C(SCC(=O)Nc4ccc(C(C)C)cc4)N3C2=O)cc1` (configuration not stated), the figure is inactive: 97%; as for `COC(=O)CCCn1c(-c2ccc(C)cc2)c(C)n2c3c(=O)n(C)c(=O)n(C)c3nc12`, inactive: 79%.
Turning to `O=C(CSc1nnc2[nH]c(=O)cc(-c3ccccc3)n12)Nc1ccc(OC(F)(F)F)cc1`, the survival was inactive: 74%.
Under `COCc1cc(C)nc2sc3c(c12)NC(c1ccccc1C(=O)O)N(c1cccc(C(F)(F)F)c1)C3=O` (configuration not stated) stands inactive: 113%; under `COc1cc([N+](=O)[O-])ccc1NC(=O)c1nc2ccccc2n(C)c1=O`, inactive: 82%.
Under `Cc1ccc(S(=O)(=O)c2nc(-c3cccc(Br)c3)oc2N2CCCCCC2)cc1` stands inactive: 55%; under `CCOC(=O)C1CCN(S(=O)(=O)c2cc3c4c(c2)C(C)C(=O)N4CCC3)CC1` (configuration not stated), inactive: 88%; under `Cc1cccc(C(=O)Nc2c(C(=O)N3CCN(c4ccc(F)cc4)CC3)oc3ccccc23)c1`, inactive: 70%.
As for `CC1Cc2cc(C(=O)NC3CCCCC3)ccc2O1` (configuration not stated), the figure is inactive: 111%; as for `CCn1ccc2c(OCC(=O)Nc3ccc(C)c(Cl)c3)cccc2c1=O`, inactive: 47%.
Consider `COc1cccc(N2CCN(C(=O)CCSCc3ccccc3F)CC2)c1`, for which the survival is inactive: 75%.
As for `CCN(CC)c1cc(C)c2cc(NC(=O)c3cc(OC)cc(OC)c3)ccc2n1`, the figure is inactive: 65%.
As to `Cc1ccc(S(=O)(=O)N(CC(=O)Nc2ccc(F)cc2F)Cc2ccc(F)cc2)cc1`, the survival is inactive: 79%.
As for `Cc1cc(=O)n(Cc2c(F)cccc2Cl)c2c1c(C)nn2-c1cccc(F)c1`, the figure is inactive: 90%; as for `O=C(Cc1ccc(Cl)cc1)NCC(c1cccs1)S(=O)(=O)c1ccccc1` (configuration not stated), inactive: 66%.
As for `CCCSc1ncc(Cl)c(C(=O)Nc2sc(C(C)=O)c(C)c2C(=O)OCC)n1`, the figure is inactive: 80%.
As for `COc1ccccc1C(=O)Nc1cccc(C(=O)OCc2cc(=O)n3c4c(sc3n2)CCCC4)c1`, the figure is inactive: 79%.
Take `CCOc1ccc(NC(=O)Cn2c(=O)n(CC3CCC(C(=O)NCCc4ccccc4)CC3)c(=O)c3ccccc32)cc1` (configuration not stated): the survival was inactive: 73%.
As for `COc1ccc(NC(=O)CSc2oc(-c3ccco3)nc2S(=O)(=O)c2ccc(C)cc2)c(OC)c1`, the figure is inactive: 70%; as for `CC(C)NC(=O)C1CCN(S(C)(=O)=O)CC1`, inactive: 109%.
As for `CC(=O)Nc1ccc(NC(=O)c2cc(CN3CCCC3)on2)cc1`, the figure is inactive: 80%; as for `COc1cc(C(=O)NC(c2ccccc2Cl)c2cc(Cl)c3cccnc3c2O)cc(OC)c1OC` (configuration not stated), inactive: 100%; as for `Cc1ccc(C)c(NC(=O)CSc2nnc3[nH]c(=O)cc(-c4ccccc4)n23)c1`, inactive: 119%.
Under `CC(C)(C)OC(=O)N1CCC(N2CCN(Cc3ccccc3)C(=O)C2=O)CC1` stands inactive: 89%; under `Cc1onc(-c2ccccc2Cl)c1C(=O)Oc1ccccc1F`, inactive: 71%.
With `CCOC(=O)c1ccccc1NC(=O)NCc1c(-n2cccc2)sc2c1CCCC2`, the survival was inactive: 77%.
As for `CCOc1ccc(NC(=O)C(CC(C)C)N2Cc3ccccc3C2=O)cc1` (configuration not stated), the figure is inactive: 134%; as for `Cc1c(CNC(C)CCc2ccccc2)c(C(=O)O)c(C)n1Cc1ccc(F)cc1` (configuration not stated), inactive: 93%.
Consider `Cc1nc2ccccc2c(=O)n1/N=C1\C(=O)N(C)c2ccccc21`, for which the survival was inactive: 108%.
Under `CN(C)S(=O)(=O)c1ccc2c(c1)N(CC(=O)Nc1cccc(C(F)(F)F)c1)C(=O)CS2` stands inactive: 71%; under `CC(=O)Nc1ccccc1OC(=O)N1CCOCC1`, inactive: 103%.
As for `COc1cccc(C2c3c(oc4cc(C)cc(C)c4c3=O)C(=O)N2CCc2ccc(OC)c(OC)c2)c1` (configuration not stated), the figure is inactive: 87%; as for `COc1ccc(NC(=O)CCS(=O)(=O)c2nc(-c3cccs3)cc(C(F)(F)F)n2)cc1`, inactive: 73%; as for `CCCc1cc(=O)n2c(C(=O)Nc3ccc(OCC)cc3)c(C(=O)Nc3ccc(C)cc3)sc2n1`, inactive: 84%.
With `CCc1nc2ccccc2n1CCO`, the survival is inactive: 101%.
Under `COc1ccc(CNc2nc(-c3ccccc3)nn2S(=O)(=O)c2ccccc2)cc1` stands active: 4%.
As for `CN(CC(=O)NCc1ccc(Cl)cc1)S(=O)(=O)c1ccc2[nH]c3c(c2c1)CCCC3`, the figure is inactive: 99%; as for `CC(C(=O)O)N1c2cccc3cccc(c23)S1(=O)=O` (configuration not stated), inactive: 99%; as for `CCn1c(SCc2ccccc2C)nc(=O)c2c(C(=O)OC)cc(C3CC3)nc21`, inactive: 70%.
Regarding `COc1ccccc1CNC(=O)CCC1N=C2c3ccccc3N=C(SCC(=O)Nc3ccc(F)cc3)N2C1=O` (configuration not stated), the survival was inactive: 91%.
Under `Cc1ccc2c(c1)c1c(c(=O)n(-c3cccc(Cl)c3)c(=O)n1CC(=O)NCCC1=CCCCC1)n2C` stands inactive: 67%; under `O=C(Nc1nnc(-c2cc(Cl)ccc2Cl)o1)c1ccc2c(c1)OCCO2`, inactive: 72%; under `Cc1cc(=O)oc2cc(OCC(=O)NCc3ccco3)ccc12`, inactive: 93%.
For `COc1ccc(-n2c(Cc3ccccc3)nnc2SCc2nc(-c3cccs3)no2)cc1`, the survival was inactive: 77%.
Consider `O=C(CCCc1ccccc1)N1CCN(c2ccccn2)CC1`, for which the survival was inactive: 87%.
